± gives the standard deviation of the averaged measurements. The full ranking holds about 33,000 sequences; the median of “E-score (dimensionless, -0.5 to 0.5)” is about -0.049, and the highest 2% start at about 0.37. The list shows a part of the results.

This test has as its system T1, PmTbr T-box DNA-binding domain (GST fusion).
T1 sequence: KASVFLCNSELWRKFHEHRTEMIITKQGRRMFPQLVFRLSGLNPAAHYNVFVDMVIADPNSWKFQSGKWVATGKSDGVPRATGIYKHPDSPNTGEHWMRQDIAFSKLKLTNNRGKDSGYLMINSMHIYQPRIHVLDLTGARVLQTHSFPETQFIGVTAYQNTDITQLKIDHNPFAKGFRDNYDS
The test can be described thus: PBM E-score of 8-mer (E-score (dimensionless, -0.5 to 0.5)); Tbr is Tbrain of the sea star Patiria miniata (Pm) or the sea urchin Strongylocentrotus purpuratus (Sp); higher = stronger binding preference; most listed sequences are background and not binding sites. To be noted: the construct has about 5 more residues each side. The gist of the method: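 GST-fused Tbr T-box DNA-binding domains (the whole T-box plus about five flanking residues) were expressed in BL21 E. coli at 20 °C and purified by glutathione affinity chromatography. Universal Agilent oligonucleotide arrays were made double-stranded by primer extension, incubated with 200 nM protein in PBS (pH 7.5), then scanned and quantified. Every ungapped 8-mer was scored from probe intensities. The Universal PBM Analysis Suite gave each word an enrichment E-score, averaged over duplicate arrays.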
Consider CCCCTTGA, for which the “PBM E-score of 8-mer” value was -0.08 ± 0.0082.

With TAGGTTCA, the “PBM E-score of 8-mer” value is -0.023 ± 0.1.

ATCCACAC: the “PBM E-score of 8-mer” value stood at 0.339 ± 0.011.

For TACTTCCA, the “PBM E-score of 8-mer” value was -0.16 ± 0.084.

For AAGTGTCG, the “PBM E-score of 8-mer” value came out at 0.44424 ± 0.0003.

Consider CGTCGGTC, for which the “PBM E-score of 8-mer” value is -0.215 ± 0.041.

Take ACTAATCG: the “PBM E-score of 8-mer” value is -0.0843 ± 0.064.

Take CGCGCTAG: the “PBM E-score of 8-mer” value amounted to 0.159 ± 0.019.

Take GAGCACGA: the “PBM E-score of 8-mer” value is -0.0758 ± 0.042.

Turning to GATGATCA, the “PBM E-score of 8-mer” value stood at 0.0368 ± 0.0032.

For GCCATACA, the “PBM E-score of 8-mer” value amounted to 0.0649 ± 0.0091.

As to ACTAGGGG, the “PBM E-score of 8-mer” value stood at 0.00307 ± 0.069.

With TGCCTACA, the “PBM E-score of 8-mer” value was -0.0287 ± 0.062.

In the case of GTGGTTAA, the “PBM E-score of 8-mer” value was 0.0848 ± 0.1.

In the case of GCGGGGAC, the “PBM E-score of 8-mer” value was -0.227 ± 0.05.

As to CGTCGTGC, the “PBM E-score of 8-mer” value worked out at 0.0521 ± 0.018.

On to AGGTATAA, for which the “PBM E-score of 8-mer” value was found to be 0.00827 ± 0.059.

Regarding AATGTAAA, the “PBM E-score of 8-mer” value was determined as 0.00302 ± 0.019.

GTTAGCTA: the “PBM E-score of 8-mer” value was -0.0565 ± 0.041.

For GCAGACAC, the “PBM E-score of 8-mer” value worked out at 0.168 ± 0.016.

As to ATCAAATG, the “PBM E-score of 8-mer” value was -0.0836 ± 0.039.

Turning to CCGGAATA, the “PBM E-score of 8-mer” value is -0.0611 ± 0.069.

As to GTTAAGCA, the “PBM E-score of 8-mer” value turned out to be 0.0703 ± 0.02.

Consider AGAATGCA, for which the “PBM E-score of 8-mer” value is -0.0829 ± 0.0047.

Regarding CGGCATGC, the “PBM E-score of 8-mer” value was -0.0704 ± 0.06.

Regarding ACCTATCA, the “PBM E-score of 8-mer” value was 0.222 ± 0.0038.

For CACGGCGG, the “PBM E-score of 8-mer” value was 0.00086 ± 0.011.

Consider CTATACGA, for which the “PBM E-score of 8-mer” value worked out at 0.143 ± 0.018.

Consider ACCTAGTA, for which the “PBM E-score of 8-mer” value was -0.0121 ± 0.025.

As for AAGATAAG, the “PBM E-score of 8-mer” value was -0.257 ± 0.023.

Turning to TTCTGCAA, the “PBM E-score of 8-mer” value was -0.118 ± 0.03.

Turning to ATATGCTC, the “PBM E-score of 8-mer” value is -0.0862 ± 0.0065.

As for ATACGCAT, the “PBM E-score of 8-mer” value is -0.114 ± 0.039.

CCTGGTCA: the “PBM E-score of 8-mer” value worked out at 0.0112 ± 0.094.

As to AGATCGTG, the “PBM E-score of 8-mer” value was found to be 0.112 ± 0.016.

Consider AAGGCCCA, for which the “PBM E-score of 8-mer” value was -0.0396 ± 0.001.

CACGCATG: the “PBM E-score of 8-mer” value worked out at 0.133 ± 0.03.

In the case of AATCATCT, the “PBM E-score of 8-mer” value was determined as 0.114 ± 0.024.

Turning to CATACCGA, the “PBM E-score of 8-mer” value was -0.186 ± 0.051.

Consider CCCCCAGC, for which the “PBM E-score of 8-mer” value was -0.176 ± 0.0044.

Take AACCGAAA: the “PBM E-score of 8-mer” value is -0.197 ± 0.051.

For AAGACTTA, the “PBM E-score of 8-mer” value was -0.124 ± 0.081.

AGTCTGCC: the “PBM E-score of 8-mer” value is -0.227 ± 0.025.

Consider AGACCTGC, for which the “PBM E-score of 8-mer” value came out at 0.0219 ± 0.066.

GGTCCCAA: the “PBM E-score of 8-mer” value is -0.152 ± 0.03.

For CGACTGGA, the “PBM E-score of 8-mer” value is -0.206 ± 0.035.

In the case of AAGCAGGA, the “PBM E-score of 8-mer” value was -0.165 ± 0.022.

CCATATGG: the “PBM E-score of 8-mer” value was -0.17 ± 0.091.

For TCTGCCAA, the “PBM E-score of 8-mer” value is -0.0526 ± 0.028.

As for GGCCTTAA, the “PBM E-score of 8-mer” value is -0.123 ± 0.05.

As for AGACGATA, the “PBM E-score of 8-mer” value is -0.0177 ± 0.0056.

For AATGCGGA, the “PBM E-score of 8-mer” value was -0.0613 ± 0.037.

For GGGCTGTA, the “PBM E-score of 8-mer” value was -0.178 ± 0.004.

As to TACCGGTA, the “PBM E-score of 8-mer” value was -0.0985 ± 0.1.

Regarding ATGTGACC, the “PBM E-score of 8-mer” value came out at 0.112 ± 0.052.

ATGAGAGA: the “PBM E-score of 8-mer” value is -0.176 ± 0.079.

Take CTGAGTCA: the “PBM E-score of 8-mer” value is -0.182 ± 0.06.

For AACCAAGT, the “PBM E-score of 8-mer” value turned out to be 0.0656 ± 0.012.

Consider ATACGGCA, for which the “PBM E-score of 8-mer” value is -0.129 ± 0.014.

On to ACGTGTAT, for which the “PBM E-score of 8-mer” value is -0.0681 ± 0.11.

Regarding AACACTAG, the “PBM E-score of 8-mer” value stood at 0.275 ± 0.056.

As for CCGCGCTA, the “PBM E-score of 8-mer” value is 0.111 ± 0.046.

Consider CTAGATAA, for which the “PBM E-score of 8-mer” value is -0.0467 ± 0.005.

As for ATCCTCTG, the “PBM E-score of 8-mer” value was -0.0609 ± 0.083.

On to AATTGCAT, for which the “PBM E-score of 8-mer” value is -0.189 ± 0.074.

With GCGATACA, the “PBM E-score of 8-mer” value amounted to 0.0052 ± 0.0075.

As to ATGGCCCC, the “PBM E-score of 8-mer” value is -0.0631 ± 0.0096.

CGAAGTAA: the “PBM E-score of 8-mer” value was -0.056 ± 0.0046.

As to ACATCTGA, the “PBM E-score of 8-mer” value was found to be 0.141 ± 0.023.

As to ATATCAAT, the “PBM E-score of 8-mer” value was determined as 0.0417 ± 0.036.

For CAGAATTA, the “PBM E-score of 8-mer” value is -0.104 ± 0.044.

In the case of CAGTGGCA, the “PBM E-score of 8-mer” value came out at 0.174 ± 0.041.

Turning to AGGGATGA, the “PBM E-score of 8-mer” value is -0.219 ± 0.012.

With CAGCAAGG, the “PBM E-score of 8-mer” value amounted to 0.0737 ± 0.052.

As for GAGGAAGA, the “PBM E-score of 8-mer” value is -0.0968 ± 0.011.

For ACAAATGT, the “PBM E-score of 8-mer” value stood at 0.105 ± 0.14.

As to GTTCCATA, the “PBM E-score of 8-mer” value was -0.305 ± 0.031.

For AGCTGCAT, the “PBM E-score of 8-mer” value was -0.166 ± 0.006.

As to CACCTACG, the “PBM E-score of 8-mer” value is 0.412 ± 0.0089.

For ATACTAGA, the “PBM E-score of 8-mer” value was -0.116 ± 0.005.

In the case of TTCCAAAA, the “PBM E-score of 8-mer” value was -0.261 ± 0.068.

CGCGGGTA: the “PBM E-score of 8-mer” value was 0.105 ± 0.034.

As for AACGACTG, the “PBM E-score of 8-mer” value was 0.117 ± 0.053.

Turning to AAATTTCC, the “PBM E-score of 8-mer” value is -0.163 ± 0.01.

Regarding AGTAGGAT, the “PBM E-score of 8-mer” value is -0.0279 ± 0.011.

ATGAGTTA: the “PBM E-score of 8-mer” value was -0.173 ± 0.087.

The record behind these values is the supplement of paper PMC4166925.
